# Data taken from the supplement of paper PMC6531468.
# This is one part of the list. These are enrichments in a pooled selection; single values are uncertain. Scores sum up all selected molecules that hold the word; the word was not tested alone.
# Test system: IMP3 KH1-4
# Experiment: 6-mer SELEX enrichment z-score vs GST control; IMP3 is the RNA-binding protein IGF2BP3; higher = more enriched by binding
# Conditions: construct: KH1-4 (164-579); SELEX round: R4
# Experimental: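 SELEX-seq with GST-tagged IMP3 KH1-4 (Pro164-Lys579) and an N40 RNA pool, round 4. 6-mer z-score of sequence-tag enrichment normalised to the corresponding GST SELEX round; RNA k-mers written as DNA (T for U).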
# Sequence of IMP3 KH1-4 (chain, as listed by the source): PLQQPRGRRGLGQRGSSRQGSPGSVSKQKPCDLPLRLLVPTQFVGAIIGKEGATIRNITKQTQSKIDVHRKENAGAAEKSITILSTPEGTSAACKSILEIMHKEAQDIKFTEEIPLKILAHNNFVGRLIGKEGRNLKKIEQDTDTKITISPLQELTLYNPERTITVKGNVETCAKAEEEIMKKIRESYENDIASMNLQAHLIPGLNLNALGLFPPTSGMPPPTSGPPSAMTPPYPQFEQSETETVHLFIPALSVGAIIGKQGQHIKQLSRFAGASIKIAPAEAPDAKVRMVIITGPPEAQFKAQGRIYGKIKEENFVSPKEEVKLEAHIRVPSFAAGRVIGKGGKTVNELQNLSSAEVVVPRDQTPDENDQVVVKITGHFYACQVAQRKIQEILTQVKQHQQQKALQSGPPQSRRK
row,Sequence,6-mer SELEX enrichment z-score
1,CCCCTG,-0.43
2,GATTAA,1.11
3,CGTAGC,-1.99
4,GCATCT,0.54
5,GCCGAT,-0.404
6,GGGTCG,0.415
7,CGGTGG,0.237
8,TTAAAG,0.181
9,GACAAT,0.759
10,CGCGCC,-0.476
11,ATGAAT,2.24
12,ACGGGC,-1.77
13,TGTCAT,0.368
14,CATATC,1.13
15,GTAAAG,-0.31
16,GCGATG,-0.402
17,CTGGAG,-0.499
18,CATCGG,0.356
19,GGCGTT,-0.65
20,TCGCAG,-0.214

row,Sequence,6-mer SELEX enrichment z-score
1,AGCTCA,-0.35
2,ATTGTA,0.66
3,TAGATT,0.686
4,CTGCCC,-1.09
5,CCCGGT,-0.791
6,TCGCCG,-0.134
7,AATCTC,-0.262
8,CCCAGG,-1.13
9,AAAAAC,-2.52
10,TATGTA,0.713
11,GCACAC,2.47
12,GGTCGC,0.397
13,AAACCG,-1.94
14,GTGCCT,-1.03
15,ATGAGC,-3.08
16,GAATAT,1.44
17,TGAACA,1.16
18,GAGGGC,0.375
19,TAGGAG,0.562
20,GTGGCG,0.454

# Test system: IMP3 RRM1-2
# Sequence (chain, as listed by the source): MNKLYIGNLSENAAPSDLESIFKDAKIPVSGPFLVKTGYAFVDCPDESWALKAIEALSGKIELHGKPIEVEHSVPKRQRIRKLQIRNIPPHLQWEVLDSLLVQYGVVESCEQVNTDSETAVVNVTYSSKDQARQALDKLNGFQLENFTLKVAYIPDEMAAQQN
# Experiment: as above
# Conditions: construct: RRM1-2 (1-163); SELEX round: R2
# Experimental: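 SELEX-seq with GST-tagged IMP3 RRM1-2 (Met1-Asn163) and an N40 RNA pool, round 2. 6-mer enrichment z-score normalised to GST SELEX. RNA written as DNA (T = U).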
row,Sequence,6-mer SELEX enrichment z-score
1,CCCCTG,-0.579
2,GATTAA,-0.784
3,CGTAGC,-0.158
4,GCATCT,0.671
5,GCCGAT,-0.513
6,GGGTCG,0.346
7,CGGTGG,0.133
8,TTAAAG,-0.642
9,GACAAT,-0.159
10,CGCGCC,-0.273
11,ATGAAT,-0.641
12,ACGGGC,-0.039
13,TGTCAT,0.533
14,CATATC,1.55
15,GTAAAG,-0.821
16,GCGATG,-0.425
17,CTGGAG,-0.112
18,CATCGG,0.699
19,GGCGTT,0.557
20,TCGCAG,0.249

row,Sequence,6-mer SELEX enrichment z-score
1,AGCTCA,0.462
2,ATTGTA,-0.078
3,TAGATT,0.025
4,CTGCCC,-0.499
5,CCCGGT,-0.39
6,TCGCCG,-0.055
7,AATCTC,0.167
8,CCCAGG,-0.592
9,AAAAAC,-2.88
10,TATGTA,-0.02
11,GCACAC,2
12,GGTCGC,0.373
13,AAACCG,-2.3
14,GTGCCT,0.2
15,ATGAGC,-0.347
16,GAATAT,-0.622
17,TGAACA,-0.047
18,GAGGGC,-0.079
19,TAGGAG,0.051
20,GTGGCG,0.307

# Test system: IMP3 KH1-2
# Sequence (chain, as listed by the source): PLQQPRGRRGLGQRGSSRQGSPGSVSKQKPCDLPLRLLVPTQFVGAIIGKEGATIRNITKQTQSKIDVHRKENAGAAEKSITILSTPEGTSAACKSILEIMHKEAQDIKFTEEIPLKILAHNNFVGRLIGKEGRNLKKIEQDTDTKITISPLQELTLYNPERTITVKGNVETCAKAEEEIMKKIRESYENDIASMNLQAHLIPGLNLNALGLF
# Experiment: as above
# Conditions: construct: KH1-2 (164-376); SELEX round: R4
# Experimental: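 SELEX-seq with GST-tagged IMP3 KH1-2 (Pro164-Phe376) and an N40 RNA pool, round 4 (stringent 300/600 mM KCl washes). 6-mer z-score of sequence-tag enrichment normalised to the corresponding GST SELEX round; RNA k-mers written as DNA (T for U).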
row,Sequence,6-mer SELEX enrichment z-score
1,CCCCTG,-0.29
2,GATTAA,0.911
3,CGTAGC,-1.85
4,GCATCT,0.207
5,GCCGAT,-0.306
6,GGGTCG,0.563
7,CGGTGG,0.336
8,TTAAAG,-0.01
9,GACAAT,0.627
10,CGCGCC,-0.333
11,ATGAAT,1.65
12,ACGGGC,-1.51
13,TGTCAT,0.188
14,CATATC,1.14
15,GTAAAG,-0.48
16,GCGATG,-0.385
17,CTGGAG,-0.395
18,CATCGG,0.094
19,GGCGTT,-0.482
20,TCGCAG,-0.226

row,Sequence,6-mer SELEX enrichment z-score
1,AGCTCA,-0.23
2,ATTGTA,0.379
3,TAGATT,0.547
4,CTGCCC,-0.871
5,CCCGGT,-0.614
6,TCGCCG,-0.056
7,AATCTC,-0.275
8,CCCAGG,-1.07
9,AAAAAC,-1.79
10,TATGTA,0.518
11,GCACAC,1.98
12,GGTCGC,0.419
13,AAACCG,-1.33
14,GTGCCT,-0.91
15,ATGAGC,-2.97
16,GAATAT,1.04
17,TGAACA,1.07
18,GAGGGC,0.594
19,TAGGAG,0.362
20,GTGGCG,0.505

# Test system: IMP3 KH3-4
# Sequence (chain, as listed by the source): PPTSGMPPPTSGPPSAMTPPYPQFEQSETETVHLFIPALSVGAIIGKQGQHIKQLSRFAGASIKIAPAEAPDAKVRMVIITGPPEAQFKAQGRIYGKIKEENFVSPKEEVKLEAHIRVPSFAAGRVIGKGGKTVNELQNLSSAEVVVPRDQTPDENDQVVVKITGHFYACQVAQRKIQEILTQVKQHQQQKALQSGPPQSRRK
# Experiment: as above
# Conditions: construct: KH3-4 (377-579); SELEX round: R4
# Experimental: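 SELEX-seq with GST-tagged IMP3 KH3-4 (Pro377-Lys579) and an N40 RNA pool, round 4. 6-mer z-score of sequence-tag enrichment normalised to the corresponding GST SELEX round; RNA k-mers written as DNA (T for U).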
row,Sequence,6-mer SELEX enrichment z-score
1,CCCCTG,-0.985
2,GATTAA,1.96
3,CGTAGC,-1.8
4,GCATCT,0.066
5,GCCGAT,-0.283
6,GGGTCG,0.484
7,CGGTGG,0.237
8,TTAAAG,0.848
9,GACAAT,0.837
10,CGCGCC,-0.81
11,ATGAAT,2.98
12,ACGGGC,-1.37
13,TGTCAT,0.328
14,CATATC,0.797
15,GTAAAG,0.029
16,GCGATG,-0.217
17,CTGGAG,-0.431
18,CATCGG,-0.033
19,GGCGTT,-0.28
20,TCGCAG,-0.253

row,Sequence,6-mer SELEX enrichment z-score
1,AGCTCA,-0.321
2,ATTGTA,0.915
3,TAGATT,1.02
4,CTGCCC,-1.64
5,CCCGGT,-0.807
6,TCGCCG,-0.417
7,AATCTC,-0.508
8,CCCAGG,-1.41
9,AAAAAC,-1.08
10,TATGTA,0.974
11,GCACAC,1.15
12,GGTCGC,0.324
13,AAACCG,-1.95
14,GTGCCT,-0.898
15,ATGAGC,-2.55
16,GAATAT,2.1
17,TGAACA,1.22
18,GAGGGC,0.637
19,TAGGAG,0.619
20,GTGGCG,0.783
